Hit rate of the full screen: of about 44,000 compounds, about 340 (0.77%) were called active. Another 5% or so got no clear call; they are omitted. Calls follow the shape of the dose curve; as a rule, active = well fitted inhibition curve with a large enough effect; inconclusive = small, poorly fitted or top-dose-only effect; inactive = flat fitted curve, though single readings scatter. The list shows a part of the results.
Assay: Acumen qHTS Assay for Inhibitors of the mTORC1 Signaling Pathway in MEF (Tsc2-/-, p53-/-) Cells: Sytravon; also: nearly all actives have a fitted effect of over 50% in size
Settings: phospho-rpS6 immunofluorescence/PI, 24 h; series mostly up to 38.3 µM; activity change, negative = inhibition: at the top concentration
Excerpt: NIH Molecular Libraries Probe Production Centers Network [MLPCN] NIH Chemical Genomics Center [NCGC] MLPCN Grant: NS059428-01 Assay Submitter (PI): Blenis, John; Hoffman, Greg; Harvard University NCGC Assay Overview: The mammalian target of rapamycin (mTOR) is an intracellular serine/threonine kinase Aberrant regulation of mTOR signaling plays a causative role in a number of human diseases, including cancer, benign tumors such as lymphangioleiomyomatosis (LAM) and Tuberous Sclerosis Complex (TSC), and metabolic diseases such as diabetes and obesity. This project aims to identify inhibitors of ribosomal protein S6 (rpS6) phosphorylation. The phosphorylation of rpS6 is a key event downstream of mTOR activation. The assay uses a phospho-specific antibody of phospho-rpS6 to detect inhibitors of mTOR activation. Mutations in the Tsc1 and Tsc2 genes are the underlying genetic lesions responsible for TSC, causing constitutive activation of the mTORC1 pathway and leading to profound effects on cell metabolism. Aberrant metabolism in cancer has recently received significant attention as a target to develop therapeutic agents in the treatment of cancer.1 As Tsc2-/- cells have lost the ability to respond to energy and growth factor deprivation, these cells are unable to properly down regulate cellular biosynthetic processes in response to metabolic stress, and are thus extremely sensitive to glucose deprivation-induced death.2 A central goal of this project is to explore the unique cell survival and metabolic properties of cells with Tsc1 or Tsc2 by screening for compounds that selectively target the Tsc2-/- MEFs by screening both Tsc2-/- and WT MEF cell lines. We hope to better understand these aspects of TSC physiology in order to exploit them for therapeutic benefit.
NCGC Acumen Assay Protocol Summary: For quantitative high throughput analysis of mTORC1 signaling, we developed a cell-based assay for immuno-fluorescence based detection of rpS6 phosphorylation on the Acumen Explorer that will be used a platform for the primary small molecule screen. Mouse embryonic fibroblasts (MEFs) are cultured in 1536-well plates using DMEM + 10% FBS. Twenty-four hrs after plating, test compounds (solubilized in DMSO) are delivered and incubated with the cells for 24 hrs at 37 degree Celsius. Following the incubation, media with compound is aspirated and the cells are fixed in 4% paraformaldehyde (PFA) containing PBS + 0.2% TX-100. Next, PFA is aspirated, cells are washed two times with PBS plus 0.2% TX-100 and the cells are blocked for 1 hr at room temperature (blocking buffer: LiCOR Blocking Buffer plus 0.2% TX-100). […] Cells are washed two times with PBS plus 0.2% TX-100, and stained with 10 uM propidium iodide (PI) for 20-25 minutes for cell number measurement (1:500 dilution of Hoescht staining is also added for IN Cell imaging). The plates are scanned on the Acumen Explorer laser scanning instrument (TTP Labtech) using the 488nm laser for simultaneous excitation of the Alexa-488 and PI. […] The normalized phospho-S6 staining is calculated as the ratio of the integrated Alexa 488 intensity divided by the integrated PI intensity for the single concentration rapamycin control (7.5 nM) and DMSO columns. […] Inhibition of the pathway is defined based on the normalized phospho-S6 intensity in rapamycin treated cells. Active cells are defined as those with a normalized phospho-S6 staining above this threshold, and each treatment is reported as the % positive cells in the well, where thresholds are defined by selecting wells with the highest and lowest signal and differentiating between the % non-active and % active populations. In addition to the pathway specific phospho-S6 endpoint, the number of PI stained cells from the Acumen is recorded as a measure of cell viability. The primary screen was performed with a MEF cell line in a defined genetic background, Tsc2-/-, p53-/- cell line stably transfected with an empty vector control (Tsc2-/- MEF).

Activity change, negative = inhibition, inactive:
COc1ccc(OC)c(NC(=O)Cn2ccn(-c3ccc(F)cc3)c(=O)c2=O)c1 -2.14%
O=C(NCc1ccc2c(c1)CCN2C(=O)c1ccncc1)c1ccccc1Br -1.32%
COc1ccc(C)cc1S(=O)(=O)Nc1cccc(-c2ccc(N3CCCC3)nn2)c1 -0.367%
CCCNC(=O)CCn1nc(-c2ccc(C)cc2)c2ccccc2c1=O 1.3%
Cc1ccc2ncc(C(=O)Nc3cccc(C(F)(F)F)c3)c(=O)n2c1 -1.39%
CC(C)c1ccc(NC(=O)c2cc3c(=O)oc4ccccc4c3s2)cc1 1.62%
CCOc1ccc(CCNC(=O)c2cc3c(=O)n(C)c4ccccc4c3s2)cc1OCC -5.24%
COc1ccccc1NC(=O)c1sc2cccc(Cl)c2c1Cl 6.6%
CCOC(=O)c1ccc2ncc(C(=O)OCC)c(NCCc3ccc(OC)c(OC)c3)c2c1 -9.29%
CCCC12CN3CC(C)(CN(C1)C3c1ccc(CC)cc1)C2=O (configuration not stated) -12.6%
CCc1ccc(OCC(=O)NCC(c2ccc(Cl)cc2)N2CCOCC2)cc1 (configuration not stated) -9.54%
O=c1cc2nc(-c3ccccc3)nc(SCc3cccc(Br)c3)n2[nH]1 3.89%
O=C(CC(c1cccs1)N1Cc2ccccc2C1=O)Nc1ccccc1 (configuration not stated) 0.619%
CCN1CCN(C(=O)Cn2ncc3c4ccccc4n(Cc4ccccc4F)c3c2=O)CC1 1.24%
Cc1cccc(N2CCN(C(c3ccc(F)cc3)c3nnc(-c4ccccc4)o3)CC2)c1C (configuration not stated) 7.2%
COc1cccc(N2CCN(C(=O)c3cnc4c(C)cccn4c3=O)CC2)c1 -3.22%
CC(C)Oc1ccc(CNC(=O)C2CCN(C(=O)N3CCOc4ccc(Cl)cc43)CC2)cc1 11.7%
Cc1ccccc1-c1nc(NC(=O)CSc2ncnc3sc4c(c23)CCCC4)ns1 -2.99%
COc1ccc(N2CCN(C(CNC(=O)C(=O)NCc3ccc(C)cc3)c3cccnc3)CC2)cc1 (configuration not stated) -3.29%
Cc1ccc(Cl)cc1N1CCN(C(=O)C(C)n2ncn3cccc3c2=O)CC1 (configuration not stated) -1.13%
CCCCN(CCCC)C(=O)c1cc2c(=O)n3ccccc3nc2s1 -27.5%
Cc1cccc(N2CCN(S(=O)(=O)c3ccc(F)c(C(=O)Nc4cccc(Cl)c4C)c3)CC2C)c1 (configuration not stated) 0.359%
CCNC(=O)c1c(NC(=O)c2cc(=O)c3ccc(C)c(C)c3o2)sc2c1CCCC2 -1.58%
O=S(=O)(Nc1ccc(-c2ccc(N3CCCCCC3)nn2)cc1)c1ccc(C(F)(F)F)cc1 0.873%
COc1ccc(Nc2ncnc3c2cnn3C)c(OC)c1 0.864%
Cc1nn(-c2ccccc2)c2c1cc1c(=O)[nH]c(=O)nc-1n2-c1cccc(C(F)(F)F)c1 -7.8%
O=C(NCCSc1c(-c2ccc(Cl)cc2)[nH]c2ccccc12)c1ccc(S(=O)(=O)N2CCOCC2)cc1 -12.2%
Cc1ccc(-n2nc3c(=O)n(CCCC(=O)NCc4ccc(F)cc4)nc(C)c3c2C)cc1 -4.55%
Cc1cc(C)c(S(=O)(=O)NCC(c2ccco2)N2CCN(c3ccccc3)CC2)c(C)c1 (configuration not stated) 0.476%
O=C(CN1CCN(Cc2ccc(F)cc2)C1=O)NCc1ccccc1 -12.9%
Cc1ccc2c(c1)-c1onc(C(=O)N3CCN(c4cccc(C)c4C)CC3)c1CO2 5.36%
Cc1cc(C(F)(F)F)c2c(N)c(C(=O)Nc3c(Cl)cccc3Cl)sc2n1 2.46%
COC(=O)c1c(NC(=O)c2c(OC)cccc2OC)sc2c1CCCC2 2.17%
CC1CCCCN1S(=O)(=O)c1ccc2[nH]c(=O)cc(C(=O)NCCc3ccc(Cl)cc3)c2c1 (configuration not stated) -3.8%
CC(=O)c1cccc(Nc2ncnc3c2cnn3-c2cccc(Cl)c2)c1 12.3%
C=Cc1ccc(Cn2c(C(=O)OC)cc3sc(C)cc32)cc1 -9.72%
CC(C)OCCCNC(=O)CN1C(=O)CSc2ccc(S(=O)(=O)N3CCOCC3)cc21 -1.95%
COc1cccc(NC(=O)c2oc3ccc(S(=O)(=O)N4CCOCC4)cc3c2C)c1 7.75%
CCc1ccc(Nc2nc3c(S(=O)(=O)c4cccc(Cl)c4)nnn3c3ccsc23)cc1 1.87%
CNc1nc(Oc2ccc(=O)[nH]n2)nc(N2CCOCC2)n1 0.404%
COc1ccc(-n2cc(C(=O)Nc3ccccc3C#N)c3ccccc3c2=O)cc1 -0.505%
O=C(c1cccc([N+](=O)[O-])c1)N1CCN(CCc2ccncc2)CC1 1.93%
CCOc1ccccc1NC(=O)c1nn(-c2ccc(OC)cc2)c(=O)c2c1c1ccccc1n2C 1.09%
CCOc1ccc(NC(=O)Cn2c(=O)n(Cc3ccccc3)c(=O)c3c4c(sc32)CN(C(C)=O)CC4)cc1 -14.2%
COc1cccc(-n2cc(C(=O)Nc3ccccc3C(N)=O)c3ccccc3c2=O)c1 11.7%
Cc1nc(SCCOc2ccc(Cl)cc2)[nH]c(=O)c1Cc1ccccc1 7.62%
Cc1ccccc1CNC(=O)Cn1cc2c(n1)-c1c(oc(C(=O)N3CCCC3)c1C)CC2 -6.84%
COc1ccccc1NC(=O)C1=C(C)Nc2ncnn2C1c1sccc1C (configuration not stated) 3.53%
COc1ccc(N2CC(NC(=O)C3CCCC3)CC2=O)cc1 (configuration not stated) -0.638%
COc1ccc(OC)c(CNC(=O)CCC(=O)N2Cc3ccccc3Oc3ncccc32)c1 -2.05%
COc1ccc2nc(NC(=O)c3nc(SCc4cccc(C)c4)ncc3Cl)sc2c1 3.5%
COc1ccc(N(CC(=O)N2CCN(c3ccc(F)cc3)CC2)S(=O)(=O)c2c(C)nn(C)c2C)cc1 -0.649%
Cc1cc(C)cc(NC(=O)CN(C)S(=O)(=O)c2ccc3c(c2)CCC(=O)N3)c1 -11.5%
Cc1cccc(C(=O)Nc2sc3c(c2C(=O)O)CCCC3)c1 6.54%
COc1cccc(CNC(=O)c2cccc(NC(=O)c3nsc4ccccc34)c2)c1 2.84%
COc1cc(Cl)c(NC(=O)CN(C)S(=O)(=O)c2ccc3[nH]c4c(c3c2)CCCC4)c(OC)c1 -2.1%
CCCOc1ccc(CNC(=O)Cn2c(=O)oc3ccccc32)cc1 -0.255%
Cc1ccc(CNC(=O)c2cnn(-c3ccc(F)cc3F)c2C2CCN(C(=O)OC(C)(C)C)CC2)cc1 0.561%
CCCOc1ccc(C2C(=O)N(C3CCCCC3)CC(=O)N2CCC2=CCCCC2)cc1OC (configuration not stated) 0.302%
CCOC(=O)C(CC)Sc1nnc2[nH]c(=O)cc(C)n12 (configuration not stated) -1.29%
COc1cccc(CNC(=O)CC(c2ccc(C)cc2)N2Cc3ccccc3C2=O)c1 (configuration not stated) -10.1%
COc1ccc(NS(=O)(=O)c2ccc3c(c2)n(C)c(=O)c(=O)n3C)cc1Cl 0.377%
